# Laboratory results reported in the supplement of paper PMC4723716.
# ± gives the uncertainty stated by the source. In all, about 9,900 compounds were measured (“viability index relative to DMSO control”: median about 1, lowest 2% from about 0.85 on). The list shows a part of the results.
# Test system: Plasmodium falciparum NF54 stage V gametocytes
# Test: viability index relative to DMSO control (fraction); higher = less gametocyte killing
# Details: 2.5 µM, library set: Broad Institute DOS, incubation time: 72 h
# Outline: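 Stage V gametocytes of P. falciparum NF54 were held in serum-free screening medium at 0.75% gametocytemia and 1.25% hematocrit, 10 µl per well of a 1,536-well plate, and exposed to compound at 2.5 µM for 72 hr at 37°C under low oxygen. A 3 µl mix of 2.5 µM MitoTracker Red CMXRos with 0.13% saponin was then added for one to two hours, after which one field per well was imaged and red particles of 20–70 µm2 were counted. The viability index equals this count divided by the plate mean from wells given solvent alone.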
row,SMILES,viability index
1,COCC(=O)Nc1ccc2c(c1)C(=O)N(C)[C@@H]1CC[C@@H](CC(=O)NCCCN(C)C)O[C@H]1CO2,0.9944 ± 0.0065
2,CCC(=O)N1C[C@H](O)COC[C@@H]2O[C@H](CC(=O)NCc3ccc(Oc4ccccc4)cc3)CC[C@H]21,0.951 ± 0.11
3,Cc1noc(C)c1S(=O)(=O)N(C)C[C@@H]1OCCCC[C@H](C)Oc2ccc(N(C)C)cc2C(=O)N([C@@H](C)CO)C[C@H]1C,0.994 ± 0.018
4,Cc1noc(C)c1NC(=O)N[C@@H]1C=C[C@H](CC(=O)Nc2ccc(-c3ccccc3)cc2)O[C@@H]1CO,0.951 ± 0.063
5,COc1ccc2c3c([C@@H](CO)N(C[C@]33CN(Cc4nccs4)C3)C(=O)CN(C)C)n(C)c2c1,0.998 ± 0.1
6,CCN(C[C@H]1[C@H](c2ccc(C3=CCCCC3)cc2)[C@H](CO)N1CC1CC1)C(C)=O,0.961 ± 0.084
7,O=C(Nc1ccc2c(c1)[C@H]1C[C@H](CC(=O)N3CCCCC3)O[C@H](CO)[C@H]1O2)NC1CCCCC1,0.998 ± 0.034
8,Cn1cnc(CCNC(=O)C[C@@H]2CC[C@H]3[C@@H](COC[C@H](O)CN3C(=O)Nc3ccc(C(F)(F)F)cc3)O2)c1,0.96 ± 0.034
9,Cc1nn(C)cc1NC(=O)C[C@@H]1CC[C@H]2[C@@H](COc3ccc(NC(=O)C4CCOCC4)cc3C(=O)N2C)O1,1.04 ± 0.087
10,COCC(=O)N1[C@H](C(=O)Nc2ccccc2)[C@@H](CO)[C@@H]2Cn3c(ccc(-c4ccncc4)c3=O)[C@@H]21,1.03 ± 0.057
11,O=C(Nc1cccc(Cl)c1)N[C@H]1CC[C@@H](CCn2cc(Cc3ccccc3)nn2)O[C@@H]1CO,1.14 ± 0.025
12,CO[C@H](CN(C)S(=O)(=O)c1ccc(C)cc1)[C@H](C)CN(C(=O)Nc1ccccc1F)[C@H](C)CO,1.06 ± 0.026
13,O=C(C[C@@H]1CC[C@H]2NC[C@H](O)COC[C@@H]2O1)Nc1ccc(-c2ccccc2)cc1,0.92 ± 0.05
14,Cn1cnc(S(=O)(=O)N2C[C@H](O)COC[C@H]3O[C@H](CC(=O)NCc4cccc(F)c4)CC[C@@H]32)c1,1.04 ± 0.083
15,O=C(CCN1CCCCC1)NCC[C@H]1CC[C@@H](NS(=O)(=O)c2cccc(Cl)c2)[C@@H](CO)O1,0.94 ± 0.026
16,COc1ccc(NC(=O)N(C)C[C@@H]2Oc3c(NS(=O)(=O)c4c(C)noc4C)cccc3C(=O)N([C@@H](C)CO)C[C@@H]2C)cc1,0.9184 ± 0.007
17,COc1ccc(S(=O)(=O)N2C[C@H](O)COC[C@@H]3O[C@@H](CC(=O)N[C@@H]4CCN(Cc5ccccc5)C4)CC[C@H]32)cc1,1.03 ± 0.14
18,CN1C(=O)c2cc(NC(=O)c3cnccn3)ccc2OC[C@H]2O[C@@H](CC(=O)NCC3CCCCC3)CC[C@@H]21,0.9938 ± 0.0065
19,COCC(=O)N1C[C@H]2[C@@H](c3ccccc31)[C@@H](CO)N2C(=O)c1ccccc1F,1.05 ± 0.095
20,CCC(=O)N(C)C[C@@H]1[C@@H](c2ccccc2)[C@H](CO)N1Cc1cccnc1,1.0474 ± 0.00016
21,C[C@@H]1C/C=C/C[C@H](c2ccc3c(c2)OCO3)NC(=O)[C@H](C)N(C)C(=O)c2ccccc2O1.C[C@@H]1C/C=C\C[C@H](c2ccc3c(c2)OCO3)NC(=O)[C@H](C)N(C)C(=O)c2ccccc2O1,1.04 ± 0.2
22,C/C=C/c1ccccc1[C@@H]1[C@H](C#N)N(c2ncc(CC)s2)[C@H]1CO,1.08 ± 0.068

row,SMILES,viability index
1,O=C1CCCc2cnnn2COC[C@H](Cc2ccccc2)N1,1.01 ± 0.054
2,CO[C@H]1CN(C)C(=O)c2cc(NC(=O)Cc3ccccc3)ccc2OC[C@H](C)N(C(=O)c2ccccc2F)C[C@H]1C,1.04 ± 0.03
3,C[C@@H]1CN([C@@H](C)CO)C(=O)c2cccc(NC(=O)c3ccncc3)c2O[C@@H]1CN(C)Cc1ccc2c(c1)OCO2,1.0317 ± 0.00039
4,CO[C@@H]1CN(C)C(=O)c2cc(NS(=O)(=O)c3cccc(Cl)c3)ccc2OC[C@@H](C)NC[C@H]1C,1.03 ± 0.026
5,O=C(NC1CCCC1)[C@@H]1[C@@H](CO)[C@@H]2Cn3c(cccc3=O)[C@@H]2N1CCc1ccccc1,1.06 ± 0.095
6,O=C1N[C@@H](c2ccccc2)COCn2nncc2CC[C@@H]1Cc1ccccc1,1 ± 0.045
7,Cc1ccc(OC(=O)N(C)C[C@H]2OCc3ccccc3-c3ccccc3C(=O)N([C@@H](C)CO)C[C@@H]2C)cc1,0.996 ± 0.045
8,COc1cccc(CN2CCCCN3[C@@H](CO)[C@@H](c4ccc(-c5ccccc5OC)cc4)[C@@H]3C2)c1,0.858 ± 0.018
9,C[C@@H]1CCCCO[C@H](CN(C)S(=O)(=O)c2ccc(Cl)cc2)[C@@H](C)CN([C@@H](C)CO)C(=O)c2cc(NC(=O)Nc3ccc(C(F)(F)F)cc3)ccc2O1,1.08 ± 0.17
10,C[C@@H]1CN([C@H](C)CO)C(=O)c2cc(NC(=O)Nc3ccc(C(F)(F)F)cc3)ccc2O[C@@H](C)CCCCO[C@@H]1CN(C)CC1CCCCC1,1.01 ± 0.049
11,O=C(NC1CCCC1)N[C@@H]1C=C[C@H](CC(=O)N2CCOCC2)O[C@@H]1CO,1.17 ± 0.036
12,CS(=O)(=O)N1CC(=O)N2[C@H](CO)[C@@H](c3ccc(C#Cc4ccc(F)cc4)cc3)[C@H]2C1,1.01 ± 0.0094
13,O=C1CCCCn2nncc2COC[C@@H](Cc2ccccc2)N1,1.02 ± 0.017
14,CCCNC(=O)N1[C@@H](C#N)[C@@H](c2ccc(-c3ccccc3F)cc2)[C@@H]1CO,1.11 ± 0.021
15,N#C[C@H]1[C@H](c2ccc(-c3cccc(F)c3)cc2)[C@H](CO)N1C(=O)NC1CCCC1,1.01 ± 0.12
16,COc1ccc(NC(=O)N2CC(=O)N3[C@H](C2)[C@H](c2ccc(Br)cc2)[C@@H]3CO)cc1,1.03 ± 0.065
17,O=C(C1CCCCC1)N1[C@H](CO)[C@H]2c3ccccc3NC[C@H]21,1.07 ± 0.032
18,C[C@@H]1CN([C@H](C)CO)S(=O)(=O)c2ccc(-c3cccc(C#N)c3)cc2O[C@H]1CN(C)C(=O)c1ccccc1,0.98099 ± 0.00081
19,COc1ccc2c([nH]c3[C@H](CO)N(Cc4ccc(F)cc4)C[C@]4(CCN(CC4)Cc4ccccn4)c23)c1,1.01 ± 0.028
20,COc1ccc(NC(=O)N2CC[C@@]3(CC2)CN([C@@H](CO)c2c3c3ccc(OC)cc3n2C)C(=O)C2CCC2)cc1,0.897 ± 0.041
21,O=C(C[C@@H]1CC[C@@H]2[C@H](COC[C@H](O)CN2S(=O)(=O)c2ccc(F)cc2)O1)NCCN1CCCCC1,1.05 ± 0.11
22,C[C@H]1CN([C@@H](C)CO)C(=O)c2cc(NC(=O)Nc3cccc4ccccc34)ccc2O[C@@H]1CN(C)S(=O)(=O)c1cccs1,1.06 ± 0.026
